Source: the supplement of paper PMC8728848
The other results are listed elsewhere or left out.

Assays:
Assay in all cases: glycan array binding signal (z-score within array); higher = stronger binding
Settings in all cases: glycan notation: IUPAC condensed, linker removed
[1] = molecular target: Neu5Ac(a2-6)Gal(b1-4)GlcNAc(b1-2)Man(a1-3)[GlcNAc(b1-2)Man(a1-6)]Man(b1-4)GlcNAc(b1-4)GlcNAc
Method in brief: (§1)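 The Consortium for Functional Glycomics database supplied 3228 glycan arrays, of which those lacking an available protein sequence were dropped. The binding signal, a within-array Z-score, was averaged across arrays of the same protein sequence and across linkers. Negative scores can be read as non-binding.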

[2] = molecular target: Neu5Ac(a2-6)Gal(b1-4)GlcNAc(b1-2)Man(a1-3)[GlcNAc(b1-2)Man(b1-4)GlcNAc(b1-2)Man(a1-6)]Man(b1-4)GlcNAc(b1-4)GlcNAc
Method in brief: as §1

[3] = molecular target: Neu5Ac(a2-6)Gal(b1-4)GlcNAc(b1-2)Man(a1-3)[Man(a1-6)]Man(b1-4)GlcNAc(b1-4)GlcNAc
Method in brief: as §1

[4] = molecular target: Neu5Ac(a2-6)Gal(b1-4)GlcNAc(b1-2)Man(a1-3)[Neu5Ac(a2-6)Gal(b1-4)GlcNAc(b1-2)Man(a1-6)]Man(b1-4)GlcNAc(b1-4)GlcNAc
Method in brief: as §1

[5] = molecular target: Neu5Ac(a2-6)Gal(b1-4)GlcNAc(b1-2)Man(a1-3)[Neu5Ac(a2-6)Gal(b1-4)GlcNAc(b1-2)Man(a1-6)]Man(b1-4)GlcNAc(b1-4)[Fuc(a1-6)]GlcNAc
Method in brief: as §1

[6] = molecular target: Neu5Ac(a2-6)Gal(b1-4)GlcNAc(b1-2)Man(a1-6)Man(b1-4)GlcNAc(b1-4)GlcNAc
Method in brief: as §1

[7] = molecular target: Neu5Ac(a2-6)Gal(b1-4)GlcNAc(b1-2)Man(a1-6)[Gal(b1-4)GlcNAc(b1-2)Man(a1-3)]Man(b1-4)GlcNAc(b1-4)GlcNAc
Method in brief: as §1

[8] = molecular target: Neu5Ac(a2-6)Gal(b1-4)GlcNAc(b1-2)Man(a1-6)[GlcNAc(b1-2)Man(a1-3)]Man(b1-4)GlcNAc(b1-4)GlcNAc
Method in brief: as §1

[9] = molecular target: Neu5Ac(a2-6)Gal(b1-4)GlcNAc(b1-2)Man(a1-6)[Man(a1-3)]Man(b1-4)GlcNAc(b1-4)GlcNAc
Method in brief: as §1

[10] = molecular target: Neu5Ac(a2-6)Gal(b1-4)GlcNAc(b1-3)Gal(b1-3)GlcNAc
Method in brief: as §1

[11] = molecular target: Neu5Ac(a2-6)Gal(b1-4)GlcNAc(b1-3)Gal(b1-4)GlcNAc
Method in brief: as §1

[12] = molecular target: Neu5Ac(a2-6)Gal(b1-4)GlcNAc(b1-3)Gal(b1-4)GlcNAc(b1-3)Gal(b1-4)GlcNAc
Method in brief: as §1

[13] = molecular target: Neu5Ac(a2-6)Gal(b1-4)GlcNAc(b1-3)Gal(b1-4)[Fuc(a1-3)]GlcNAc(b1-3)Gal(b1-4)[Fuc(a1-3)]GlcNAc
Method in brief: as §1

[14] = molecular target: Neu5Ac(a2-6)Gal(b1-4)GlcNAc(b1-3)GalNAc
Method in brief: as §1

[15] = molecular target: Neu5Ac(a2-6)Gal(b1-4)GlcNAc(b1-3)[Neu5Ac(a2-6)Gal(b1-4)GlcNAc(b1-6)]GalNAc
Method in brief: as §1

[16] = molecular target: Neu5Ac(a2-6)Gal(b1-4)GlcNAc(b1-6)GalNAc
Method in brief: as §1

[17] = molecular target: Neu5Ac(a2-6)Gal(b1-4)GlcNAc(b1-6)[Gal(b1-3)GlcNAc(b1-3)]Gal(b1-4)Glc
Method in brief: as §1

[18] = molecular target: Neu5Ac(a2-6)Gal(b1-4)GlcNAc6S
Method in brief: as §1

[19] = molecular target: Neu5Ac(a2-6)GalNAc
Method in brief: as §1

[20] = molecular target: Neu5Ac(a2-6)GalNAc(b1-4)GlcNAc
Method in brief: as §1

[21] = molecular target: Neu5Ac(a2-6)GalNAc(b1-4)GlcNAc6S
Method in brief: as §1

[22] = molecular target: Neu5Ac(a2-6)GlcNAc(b1-4)GlcNAc
Method in brief: as §1

[23] = molecular target: Neu5Ac(a2-6)GlcNAc(b1-4)GlcNAc(b1-4)GlcNAc
Method in brief: as §1

[24] = molecular target: Neu5Ac(a2-8)Neu5Ac
Method in brief: as §1

[25] = molecular target: Neu5Ac(a2-8)Neu5Ac(a2-3)Gal(b1-3)GalNAc(b1-4)[Neu5Ac(a2-8)Neu5Ac(a2-3)]Gal(b1-4)Glc
Method in brief: as §1

[26] = molecular target: Neu5Ac(a2-8)Neu5Ac(a2-3)Gal(b1-4)Glc
Method in brief: as §1

[27] = molecular target: Neu5Ac(a2-8)Neu5Ac(a2-3)[Gal(b1-3)GalNAc(b1-4)]Gal(b1-4)Glc
Method in brief: as §1

[28] = molecular target: Neu5Ac(a2-8)Neu5Ac(a2-3)[GalNAc(b1-4)]Gal(b1-4)Glc
Method in brief: as §1

[29] = molecular target: Neu5Ac(a2-8)Neu5Ac(a2-8)Neu5Ac
Method in brief: as §1

[30] = molecular target: Neu5Ac(a2-8)Neu5Ac(a2-8)Neu5Ac(a2-3)Gal(b1-4)Glc
Method in brief: as §1

[31] = molecular target: Neu5Ac(a2-8)Neu5Ac(a2-8)Neu5Ac(a2-3)[GalNAc(b1-4)]Gal(b1-4)Glc
Method in brief: as §1

[32] = molecular target: Neu5Ac(a2-8)Neu5Ac(a2-8)Neu5Ac(a2-8)Neu5Ac(a2-3)[GalNAc(b1-4)]Gal(b1-4)Glc
Method in brief: as §1

[33] = molecular target: Neu5Ac(b2-6)Gal(b1-4)GlcNAc
Method in brief: as §1

[34] = molecular target: Neu5Ac(b2-6)GalNAc
Method in brief: as §1

[35] = molecular target: Neu5Ac9Ac(a2-3)Gal(b1-3)GlcNAc
Method in brief: as §1

[36] = molecular target: Neu5Ac9Ac(a2-3)Gal(b1-4)GlcNAc
Method in brief: as §1

[37] = molecular target: Neu5Ac9Ac(a2-6)Gal(b1-4)GlcNAc
Method in brief: as §1

[38] = molecular target: Neu5Gc(a2-3)Gal(b1-3)GlcNAc
Method in brief: as §1

[39] = molecular target: Neu5Gc(a2-3)Gal(b1-3)[Fuc(a1-4)]GlcNAc
Method in brief: as §1

[40] = molecular target: Neu5Gc(a2-3)Gal(b1-4)Glc
Method in brief: as §1

[41] = molecular target: Neu5Gc(a2-3)Gal(b1-4)GlcNAc
Method in brief: as §1

[42] = molecular target: Neu5Gc(a2-3)Gal(b1-4)[Fuc(a1-3)]GlcNAc
Method in brief: as §1

[43] = molecular target: Neu5Gc(a2-6)Gal(b1-4)GlcNAc
Method in brief: as §1

[44] = molecular target: Neu5Gc(a2-6)GalNAc
Method in brief: as §1

[45] = molecular target: Neu5Gc(b2-6)Gal(b1-4)GlcNAc
Method in brief: as §1

B1: Gal 4 (Homo sapiens), Q8K419 (protein)
chain: MAYVPAPGYQPTYNPTLPYKRPIPGGLSVGMSVYIQGMAKENMRRFHVNFAVGQDDGADVAFHFNPRFDGWDKVVFNTMQSGQWGKEEKKKSMPFQKGKHFELVFMVMPEHYKVVVNGNSFYEYGHRLPVQMVTHLQVDGDLELQSINFLGGQPAAAPYPGAMTIPAYPAGSPGYNPPQMNTLPVMTGPPVFNPRVPYVGALQGGLTVRRTIIIKGYVLPTARNFVINFKVGSSGDIALHLNPRIGDSVVRNSFMNGSWGAEERKVAYNPFGPGQFFDLSIRCGMDRFKVFANGQHLFDFSHRFQAFQMVDTLEINGDITLSYVQI
Which results are given for B1?
glycan array binding signal (z-score) [1]: -0.203; glycan array binding signal (z-score) [2]: -0.19; glycan array binding signal (z-score) [3]: -0.236; glycan array binding signal (z-score) [4]: -0.187; glycan array binding signal (z-score) [5]: -0.396; glycan array binding signal (z-score) [6]: -0.204; glycan array binding signal (z-score) [7]: -0.2; glycan array binding signal (z-score) [8]: -0.202; glycan array binding signal (z-score) [9]: -0.204; glycan array binding signal (z-score) [10]: 0.677; glycan array binding signal (z-score) [11]: -0.121; glycan array binding signal (z-score) [12]: -0.062; glycan array binding signal (z-score) [13]: -0.206; glycan array binding signal (z-score) [14]: -0.198; glycan array binding signal (z-score) [15]: -0.21; glycan array binding signal (z-score) [16]: -0.211; glycan array binding signal (z-score) [17]: -0.196; glycan array binding signal (z-score) [18]: -0.203; glycan array binding signal (z-score) [19]: -0.201; glycan array binding signal (z-score) [20]: -0.207; glycan array binding signal (z-score) [21]: -0.207; glycan array binding signal (z-score) [22]: -0.205; glycan array binding signal (z-score) [23]: -0.208; glycan array binding signal (z-score) [24]: -0.203; glycan array binding signal (z-score) [25]: -0.331; glycan array binding signal (z-score) [26]: -0.204; glycan array binding signal (z-score) [27]: -0.201; glycan array binding signal (z-score) [28]: -0.205; glycan array binding signal (z-score) [29]: -0.207; glycan array binding signal (z-score) [30]: -0.203; glycan array binding signal (z-score) [31]: -0.178; glycan array binding signal (z-score) [32]: -0.197; glycan array binding signal (z-score) [33]: -0.208; glycan array binding signal (z-score) [34]: -0.196; glycan array binding signal (z-score) [35]: -0.197; glycan array binding signal (z-score) [36]: -0.189; glycan array binding signal (z-score) [37]: -0.2; glycan array binding signal (z-score) [38]: -0.189; glycan array binding signal (z-score) [39]: -0.208; glycan array binding signal (z-score) [40]: -0.186; glycan array binding signal (z-score) [41]: -0.201; glycan array binding signal (z-score) [42]: -0.204; glycan array binding signal (z-score) [43]: -0.191; glycan array binding signal (z-score) [44]: -0.196; glycan array binding signal (z-score) [45]: -0.201
